Reference: PubChem BioAssay AID504832 (National Center for Advancing Translational Sciences (NCATS), 2011)
Among all 310,000 compounds or so, about 18,000 (5.8%) were called active. Inconclusive results, whose numbers are uncertain, are shown with a selection of clear calls. Calls follow the shape of the dose curve; as a rule, active = well fitted inhibition curve with a large enough effect; inconclusive = small, poorly fitted or top-dose-only effect, or another doubt; inactive = no such curve, though single readings can be large or run the other way. No potency is given beside an inconclusive call; the fits are too rough.

Assay: Primary qHTS for delayed death inhibitors of the malarial parasite plastid, 48 hour incubation
Conditions: P. falciparum luciferase growth in erythrocytes; series mostly up to 28.7 µM; activity change, negative = inhibition: at the top concentration
Summary of the method: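 Growth was read as firefly luciferase luminescence after a 48 h, 37 C, 5% CO2 exposure of compounds to reporter-bearing P. falciparum cultures (0.1% parasitemia, 2% hematocrit final) in Albumax-supplemented RPMI 1640.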
% is scaled to controls: 0 for no effect and ±100 for the full control effect; potency is read from the fitted curve at half-maximal effect; tags tell the direction and shape of the fitted curve.

SMILES | Potency | activity change, negative = inhibition
CC(C)NS(=O)(=O)c1ccc(NC(=O)C(C)OC(=O)CCC2CCCCC2)cc1 (stereo unspecified) | inconclusive [inhibitor, single point] | –
O=C(CN1CCCCC1)NNc1nc(-c2ccccc2)c2cc(Cl)ccc2n1 | inconclusive [inhibitor, single point] | –
OC(CN1CCN(c2cccc(Cl)c2)CC1)C(c1ccccc1)c1ccccc1 (stereo unspecified) | inconclusive [inhibitor, single point] | –
CCOC(=O)c1cnc(-n2nc(C)cc2C)nc1NNc1nc(C)cc(C)n1 | active: 0.586 µM | –
Cc1sc(N)nc1-c1c(C)n(C)c2ccccc12 | – | inactive: 0.747%
Cc1nn(CC(=O)Nc2ccc(Cl)cc2)c(=O)c2cc(-c3ccccc3)nn12 | – | inactive: 29.9%
Cc1ccc(N(C)C(=O)C2CCCN2S(=O)(=O)c2ccc3c(c2)n(C)c(=O)c(=O)n3C)cc1 (stereo unspecified) | – | inactive: -14.4%
CCOC(=O)C1CCN(C(=O)c2cccc(S(=O)(=O)NCc3ccccc3)c2)CC1 | inconclusive [inhibitor, partial curve] | –
CCc1ccc(C(=O)Nc2cccc(-c3nn[nH]n3)c2)s1 | inconclusive [inhibitor, single point] | –
NNC(=O)c1ccc(COc2cccc3ccccc23)cc1 | inconclusive [inhibitor, single point] | –
O=C(NCCCN1CCCCC1)c1ccc2c(=O)n(CCc3ccccc3)c(=O)[nH]c2c1 | – | inactive: 33%
c1ccc(CN2c3ccccc3-c3nc4ccccc4n3C2c2ccccn2)cc1 (stereo unspecified) | active: 7.38 µM | –
Cc1ccc(N2CCN(C(=O)C3CCC(=O)N(Cc4ccc(Cl)cc4)C3)CC2)c(C)c1 (stereo unspecified) | inconclusive [inhibitor, partial curve, poor fit] | –
CC(O)CN(Cc1cccc(Cl)c1)CC(C)O (stereo unspecified) | – | inactive: 10.1%
COc1ccc(C(=O)Nc2nnc(C3=COCCO3)o2)cc1 | inconclusive [inhibitor, single point] | –
Cc1nn(-c2ccccc2)c2c1C(c1ccc(Cl)cc1)N(c1ccccc1)C(=O)N2 (stereo unspecified) | active: 13.1 µM | –
CCN(CC)S(=O)(=O)c1cccc(NC(=S)NC(=O)/C=C/c2ccc(S(=O)(=O)N3CCOCC3)cc2)c1 | inconclusive [inhibitor, partial curve] | –
O=c1cc(CSc2nnc(Nc3ccccc3)s2)nc2sccn12 | inconclusive [inhibitor, partial curve] | –
COc1cc(NC(=O)c2ccc3c(c2)S(=O)(=O)N=C2CCCCCN23)cc(OC)c1 | inconclusive [inhibitor, single point] | –
COc1ccc(C(=O)N2CCc3ccccc32)cc1 | – | inactive: 11.3%
Cn1nnnc1Sc1ncnc2scc(-c3cccs3)c12 | inconclusive [inhibitor, partial curve] | –
O=C(O)C1CC(=O)N(c2ccc(OCc3ccc(Br)cc3)cc2)C1 (stereo unspecified) | inconclusive [inhibitor, partial curve, poor fit] | –
Cc1ccc(-c2cc(-c3ccccc3Cl)[nH]n2)c(O)c1 | inconclusive [inhibitor, single point] | –
CN(C(=O)COc1ccccc1C(=O)NCc1ccccc1)C1CCS(=O)(=O)C1 (stereo unspecified) | inconclusive [inhibitor, single point] | –

SMILES | Potency | activity change, negative = inhibition
CN(C)c1cc[n+](CC(=O)Nc2ccccc2C(F)(F)F)cc1 | inconclusive [inhibitor, single point] | –
O=c1c2ccccc2[nH]c(=S)n1CCCN1CCN(C2CCCCC2)CC1 | active: 13.1 µM | –
O=C(CNC(=O)c1ccccc1Cl)Nc1ccncc1 | – | inactive: 1.11%
CCCCn1c(N)c(N(CCOC)C(=O)C2CCCN(C(=O)c3ccc(Cl)cc3)C2)c(=O)[nH]c1=O (stereo unspecified) | – | inactive: 6.91%
CC(C)CN(C(=O)COc1ccc(C(C)(C)C)cc1)C1CCS(=O)(=O)C1 (stereo unspecified) | inconclusive [inhibitor, partial curve] | –
CN(C)NC1CC(=O)N(c2ccccc2)C1=O (stereo unspecified) | inconclusive [inhibitor, single point] | –
O=C(Cn1c(NCCCO)nc2ccccc21)c1ccc(F)cc1 | – | inactive: -1.52%
Cc1cc(C)n(-c2nc(O)cc(=O)[nH]2)n1 | inconclusive [inhibitor, full curve] | –
COC/C=C/C1=CC2=CC(=O)C(C)(OC(=O)c3cnc4ccccc4n3)C(=O)C2=CN1Cc1ccc(OC)cc1 (stereo unspecified) | inconclusive [inhibitor, single point] | –
CCOC(=O)N1CCC(n2c(SCC(=O)NCCc3ccc(S(N)(=O)=O)cc3)nc3ccccc3c2=O)CC1 | inconclusive [inhibitor, single point] | –
O=c1oc2c(-c3ccc([N+](=O)[O-])cc3)cc(O)cc2s1 | inconclusive [inhibitor, partial curve] | –
COc1cc(C2/C(=C(/O)c3ccccc3)C(=O)C(=O)N2c2ccccn2)ccc1O (stereo unspecified) | – | inactive: 18.3%
COc1cc2c(cc1NC(=S)NC(=O)c1c(OC)cccc1OC)oc1ccccc12 | active: 4.15 µM | –
COc1ccc(CN(C)C(=O)c2cnc(OC)cc2C(F)(F)F)c(OC)c1 | inconclusive [inhibitor, single point] | –
COc1ccc(C(c2nnnn2CCc2ccccc2)N2CCN(C3CCCC3)CC2)cc1OC (stereo unspecified) | – | inactive: -18.9%
CCCCN(C)C1=CC2=CC(=C(C#N)C#N)CCC2CC1 (stereo unspecified) | inconclusive [inhibitor, partial curve] | –
CCc1cccc(CC)c1NC(=S)NCCc1ccc(O)c(O)c1 | inconclusive [inhibitor, partial curve] | –
Cc1cc(C)cc(S(=O)(=O)c2cn(C)c3cc(N4CCN(C)CC4)c(F)cc3c2=O)c1 | – | inactive: -10.4%
Cc1cccc(N2CCN(c3ccc4cc(S(=O)(=O)N5CCCCC5)ccc4n3)CC2C)c1 (stereo unspecified) | inconclusive [inhibitor, partial curve] | –
O=C(CNC(=O)c1ccc([N+](=O)[O-])cc1)c1ccccc1 | – | inactive: 112%
Cc1cccc(C(=O)OCC(=O)NC(=O)NCc2ccccc2)c1 | – | inactive: 5.49%
C=CCNC(=S)N1CCc2c([nH]c3ccccc23)C1C (stereo unspecified) | inconclusive [inhibitor, single point] | –
O=C1C(Cl)=C(Nc2ccccc2O)C(=O)N1c1ccccc1 | inconclusive [inhibitor, single point] | –
Cc1ccc(NC(=O)CSc2nc3ccccc3c(=O)n2CCCC(=O)NCC2CCCO2)cc1 (stereo unspecified) | – | inactive: -5.22%

SMILES | Potency | activity change, negative = inhibition
CCOc1ccc(C(=O)NNC(=O)CNC(=O)c2ccc(C)s2)cc1OC | inconclusive [inhibitor, single point] | –
CC(=O)c1ccccc1NC(=O)COC(=O)/C=C/c1cccs1 | inconclusive [inhibitor, single point] | –
Cc1cc(C)c(NC(=O)CNC(=O)COC(=O)C2=COCCO2)c(C)c1 | – | inactive: 20.5%
COC(=O)Nc1ccc(S(=O)(=O)NC2CCCCC2)cc1 | – | inactive: 11.1%
CCOC(=O)C1(Cc2ccccc2C(F)(F)F)CCN(CCCn2cccn2)CC1 | inconclusive [inhibitor, partial curve] | –
CC(C)N1CCC(NC(=O)Nc2ccc3c(c2)OCO3)CC1 | – | inactive: 50.6%
O=C(O)c1ccc(Nc2cnc3ccccc3n2)cc1 | – | inactive: 171%
c1ccc(CN2CCN(Cc3ccc4ccccc4c3)CC2)cc1 | inconclusive [inhibitor, full curve, poor fit] | –
Cc1ccc(S(=O)(=O)Cc2ccc(C(=O)N3CCC4(CC3)OCCO4)o2)cc1 | – | inactive: 21.5%
COc1cccc(O)c1CN1CCC(C(=O)Nc2ccc(Oc3cccnc3)cc2)CC1 | inconclusive [inhibitor, single point] | –
COc1ccc(OC)c(NS(=O)(=O)c2c(C(=O)N3CCCCCC3)c(C)n(C)c2C)c1 | – | inactive: -27.6%
CCOC(=O)C1CCN(Cc2cn(C)nc2-c2ccc(Oc3ccccc3)cc2)CC1 | inconclusive [inhibitor, single point] | –
COc1ccc(Nc2nc(Nc3ccc(OC)cc3)nc(-n3[nH]c(=O)c(C)c3C)n2)cc1 | active: 2.62 µM | –
O=[N+]([O-])c1cnccc1Nc1ccc(Cl)cc1 | inconclusive [inhibitor, single point] | –
O=C(O)c1ccc(N2CCc3ccccc32)c([N+](=O)[O-])c1 | – | inactive: 11.8%
COc1ccc(Cc2c(O)nc(SCC(=O)N3CCCCCC3)[nH]c2=O)cc1 | – | inactive: -23%
O=C(CSc1nc(=O)n(CCCN2CCOCC2)c2c1CCCC2)Nc1cccc([N+](=O)[O-])c1 | inconclusive [inhibitor, single point] | –
CCOC(=O)N1CCN(C(=O)CCN2C(=O)/C(=C\c3cccc(OC)c3)SC2=S)CC1 | inconclusive [inhibitor, partial curve] | –
Cc1ccccc1NC(=O)C(C)OC(=O)c1ccccc1C(=O)N(C)c1ccccc1 (stereo unspecified) | inconclusive [inhibitor, partial curve, poor fit] | –
CCOC(=O)c1ccc(NC(=O)C2(c3ccccc3)CCCC2)cc1 | inconclusive [inhibitor, single point] | –
COc1cc(C2Nc3c(F)cccc3C3C=CCC32)cc(Br)c1OC (stereo unspecified) | active: 9.28 µM | –
Cc1nn(C)c(C)c1S(=O)(=O)N(CC(=O)NCc1cccs1)c1ccc(C(C)C)cc1 | – | inactive: 0.854%
Cc1ccc(S(=O)(=O)N2CCN(C(=O)CN3C(=O)NC4(CCCC4)C3=O)CC2)c(C)c1 | inconclusive [inhibitor, single point] | –
